According to PubChem BioAssay AID1963965 (Molecular Pharmacology Branch, DTP, NCI, 2024):
Some entries of the source have several records that differ or are many. Only these are listed. There may be further records. Values that stand side by side repeat one measurement in other runs, samples, wells, individuals or studies. Additions like (4×) give the number of equal values in this list. Blank lines part the entries; values can stand above or below the molecule they belong to.

Tested on: 996289-038-R-J1-PDC spheroid viability
Assay: Anticancer human tumor 996289-038-R-J1-PDC patient-derived colon adenocarcinoma cell line growth inhibition [PI3K]
Conditions: spheroids with HUVEC and MSC; for viability, T/C: stronger effect = lower value
Description: Combinatorial screen of targeted agents with the PI3K inhibitors inavolisib, alpelisib, duvelisib, and copanlisib in multi-cell type tumor spheroids
A high-throughput screen of multi-cell type tumor spheroids was designed to identify active combinations of targeted small molecules and PI3K pathway inhibitors. Complex spheroids include a stromal component modeled by human endothelial cells (HUVEC) and fibroblasts modeled by human mesenchymal stem cells (MSCs). The concentration ranges selected for each drug and investigational agent were based upon clinically achievable concentrations if the clinical Cmax of the agent was known.
Compounds. The drugs and investigational agents: inavolisib (NSC800729), alpelisib (NSC765974), duvelisib (NSC772469), copanlisib (NSC816437), ipatasertib (NSC767898), afuresertib (NSC778305), talazoparib (NSC767125), sapanisertib (NSC764658), selumetinib (NSC741078), tovorafenib (DAY101, NSC766906), vemurafenib (NSC761431), ravoxertinib (NSC781343), sotorasib (NSC818433), MRTX1133 (NSC 836407), abemaciclib (NSC 768073), palbociclib (NSC758247), venetoclax (NSC 766270), SY5609 (NSC837396), enzalutamide (NSC755605), and darolutamide (NSC825331), were obtained from the National Cancer Institute (NCI) Developmental Therapeutics Program Chemical Repository. The FDA-approved anticancer drug set is available from the NCI Developmental Therapeutics Program. […] The stock solutions were prepared in dimethyl sulfoxide (DMSO, Sigma-Aldrich, St. Louis, MO, cat. D2650) at 800-fold the tested concentration and stored at -70 degrees C prior to their use. All drugs and investigational agents were tested over a range starting from a high concentration at or near the clinical Cmax and decreasing in half-log increments. If the clinical Cmax for an agent had not been determined, the highest concentration tested was 10 microM.
Cell Culture. All cells were maintained in an incubator at 37 degrees C and 5% CO2 with 95% humidity. The PDC lines were cultured according to standard operating procedures established by the NCI PDMR (https://pdmr.cancer.gov/sops/default.htm). All PDCs were thawed and cultured in Matrigel-coated flasks prepared with a working solution of 1X Ham's F-12 nutrient mix, without supplementation (Invitrogen, Waltham, MA, cat. 11765054), 100 U/mL penicillin-streptomycin (Invitrogen, cat. 15140122), and 2.5% Matrigel (Corning Inc., Corning, NY, cat. 354248) for the first three passages. The 354836-022-R-J1-PDC, 475296-252-R-J1-PDC, and 997726-040-R-J2-PDC lines were cultured in 6A media, which includes advanced DMEM/F-12 (Thermo Fisher Scientific, cat. 12634028), 10 mM HEPES (Thermo Fisher Scientific, cat. 15630080), 1X GlutaMAX supplement (Thermo Fisher Scientific, cat. 35050061), 0.1 mg/mL primocin (InvivoGen, San Diego, CA, cat. ant-pm-2), 10% defined fetal bovine serum, heat inactivated (HyClone Laboratories Inc., Logan, UT, cat. SH30070.03HI), 50% L-WRN conditioned media (ATCC, cat. CRL-3276), 1.25 mM N-Acetyl-L-cysteine (Sigma-Aldrich, cat. A9165), 10 mM nicotinamide (Sigma-Aldrich, cat. N0636), 1X B-27 supplement (Thermo Fisher Scientific, cat. 17504044), 1X N-2 supplement (Thermo Fisher Scientific, cat. 17502048), and 10 microM Y-27632 dihydrochloride (Tocris Bioscience, Bristol, United Kingdom, cat. 1254). The 624824-186-R-J2-PDC line was cultured in 6C/Colon 1B media, which includes all 6A media components plus 50 ng/mL human EGF recombinant protein (Thermo Fisher Scientific, cat. PHG0311). […]
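Further: spheroids exposed to compounds for seven days before viability read.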
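Wherever viability, T/C is given: luminescence used as a proxy for viable cell amount; percent viability relative to DMSO vehicle control as 100%.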

IC50 (compound alone, run of 06/12/2023): > 10 µM, 6.9 µM, 6.8 µM, 6.38 µM
SMILES: Cc1nc(NC(=O)N2CCCC2C(N)=O)sc1-c1ccnc(C(C)(C)C(F)(F)F)c1 (stereo unspecified)

SMILES: CC1(C)CCC(Nc2ncc(C(F)(F)F)c(-c3c[nH]c4c(P(C)(C)=O)c(C#N)ccc34)n2)CN1 (stereo unspecified)
viability, T/C (compound alone 0.0316 µM): 108, 106, 90.7, 116%

SMILES: CC(Nc1ncnc2nc[nH]c12)c1cc2cccc(Cl)c2c(=O)n1-c1ccccc1 (stereo unspecified)
viability, T/C (compound alone 1 µM): 99.4, 107, 91.2, 86.7, 100, 96.1, 80.6, 96.4%

SMILES: CC(Nc1ccc2c(c1)OCCn1cc(N3C(=O)OCC3C(F)F)nc1-2)C(N)=O (stereo unspecified)
viability, T/C (compound alone 0.01 µM): 97.1, 96.6, 112, 102 (2×), 106 (2×), 83.6%

SMILES: C=CC(=O)N1CCN(c2nc(=O)n(-c3c(C)ccnc3C(C)C)c3nc(-c4c(O)cccc4F)c(F)cc23)C(C)C1 (stereo unspecified)
viability, T/C (compound alone 0.316 µM): 99, 117, 98, 125%

SMILES: CNC(=O)c1ccc(N2C(=S)N(c3ccc(C#N)c(C(F)(F)F)c3)C(=O)C2(C)C)cc1F
viability, T/C (compound alone 3.16 µM): 95.1, 83.7, 111, 107%
viability, T/C (compound alone 10 µM): 97.5, 87.1, 125, 93%

SMILES: CC(=O)c1c(C)c2cnc(Nc3ccc(N4CCNCC4)cn3)nc2n(C2CCCC2)c1=O
viability, T/C (compound alone 0.00316 µM): 114, 109, 95.5, 88.8%

SMILES: C[C@@H](NC(=O)c1ncnc(N)c1Cl)c1ncc(C(=O)Nc2cc(C(F)(F)F)c(Cl)cn2)s1
viability, T/C (compound alone 3.16 µM): 111, 105, 154, 112%

SMILES: Cn1ncnc1[C@H]1c2n[nH]c(=O)c3cc(F)cc(c23)N[C@@H]1c1ccc(F)cc1
viability, T/C (compound alone 0.000316 µM): 107, 90.6, 91.4, 123%

SMILES: CC1(C)CCC(CN2CCN(c3ccc(C(=O)NS(=O)(=O)c4ccc(NCC5CCOCC5)c([N+](=O)[O-])c4)c(Oc4cnc5[nH]ccc5c4)c3)CC2)=C(c2ccc(Cl)cc2)C1
viability, T/C (compound alone 0.0316 µM): 85.5, 92.9, 109, 113%
